The data set is described as follows: xn = mol fraction of the nth substance listed. Conditions: 100 kPa.

Among the data in a compilation of properties of binary mixtures (doi:10.1016/j.molliq.2021.118393) are mass density values, retold here.

Each structure is given as a SMILES string. The densities may have been worked out from excess volumes.

What is called mass density is the mass of a sample divided by its volume. `O=C(O)CCl` + CCCC[N+](CCCC)(CCCC)CCCC.O=S(=O)([O-])O: the mass density is, setting by setting: (293.15 K, x2 = 0.333) 1150.1 kg/m3; (293.15 K, x2 = 0.5) 1113.6 kg/m3; (298.15 K, x2 = 0.333) 1149.4 kg/m3; (298.15 K, x2 = 0.5) 1110.2 kg/m3; (303.15 K, x2 = 0.5) 1106.8 kg/m3; (308.15 K, x2 = 0.5) 1103.3 kg/m3. Moreover, the mass density by setting is: (313.15 K, x2 = 0.333) 1138.6 kg/m3; (318.15 K, x2 = 0.333) 1135.1 kg/m3; (318.15 K, x2 = 0.5) 1096.7 kg/m3; (323.15 K, x2 = 0.333) 1131.7 kg/m3; (323.15 K, x2 = 0.5) 1093.5 kg/m3; (328.15 K, x2 = 0.333) 1128.2 kg/m3. The molecule further came in with a mass density (328.15 K, x2 = 0.5) of 1090.3 kg/m3 and a mass density (333.15 K, x2 = 0.333) of 1124.7 kg/m3.
Turning to `O=C(O)CCl` + CCC[N+](CCC)(CCC)CCC.[Br-], the mass density reads like this: (293.15 K, x2 = 0.333) 1227.1 kg/m3; (298.15 K, x2 = 0.333) 1223.1 kg/m3; (303.15 K, x2 = 0.333) 1219.4 kg/m3; (313.15 K, x2 = 0.333) 1211.8 kg/m3; (318.15 K, x2 = 0.333) 1208.1 kg/m3; (323.15 K, x2 = 0.333) 1204.3 kg/m3. Besides, where the note is “333.15 K, x2 = 0.333”, the mass density is recorded as 1196.9 kg/m3.
